Experimental data taken from PubChem BioAssay AID686979 (National Center for Advancing Translational Sciences (NCATS), 2013).
Hit rate of the full screen: of about 420,000 compounds, about 50,000 (12%) were called active. Inconclusive results, whose numbers are uncertain, are shown with a selection of clear calls. Calls follow the shape of the dose curve; as a rule, active = well fitted inhibition curve with a large enough effect; inconclusive = small, poorly fitted or top-dose-only effect; inactive = flat fitted curve, though single readings scatter. Potencies of inconclusive entries are left out as doubtful fits.

Assay: qHTS for Inhibitors of human tyrosyl-DNA phosphodiesterase 1 (TDP1): qHTS in cells in presence of CPT; also: nearly all actives have a fitted effect of over 55% in size
Details: chicken DT40 Tdp1-/-;hTDP1 cells + 20 nM CPT, ATP luminescence, 48 h; series mostly up to 46.2 µM
Procedure, shortened: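 Chicken DT40 Tdp1-/- cells stably complemented with human TDP1 were seeded at 400 cells/well in medium containing 20 nM camptothecin, exposed to pin-transferred compounds, and grown at 37 °C for at least 48 hr. Viability was read as ATP luminescence.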
Potency is read from the fitted curve at half-maximal effect; tags tell the direction and shape of the fitted curve.

Row | Compound | Potency
1 | CCc1ccc(-c2cc3c(N4CCN(c5ccccc5)CC4)nccn3n2)cc1 | inconclusive [inhibitor, single point]
2 | COc1ccc(C(=O)CCN(C)C)c2ccccc12 | active: 1.26 µM
3 | Cc1cc(C)c2nc(NC(=O)[C@@H](NC(=O)c3cccc(S(=O)(=O)N4CCOCC4)c3)C(C)C)sc2c1 | active: 16.4 µM
4 | CCN1CCc2c(C#N)c(N3CCOCC3)nc(NCc3ccccc3)c2C1 | inconclusive [inhibitor, single point]
5 | COC(=O)[C@H](C)N(Cc1ccc(Cl)c(Cl)c1)S(=O)(=O)CCN1CCN(c2ccccc2)CC1 | inconclusive [inhibitor, partial curve, poor fit]
6 | COC(=O)C1=C(Nc2cc(Cl)cc(Cl)c2)CSC1 | inactive
7 | Cc1occc1-c1nnc(-c2cc([N+](=O)[O-])cc([N+](=O)[O-])c2)o1 | inconclusive [inhibitor, single point]
8 | CSc1nnc(C)c(=O)n1COC(=O)COc1ccccc1F | inconclusive [inhibitor, single point]
9 | COc1ccc(NS(=O)(=O)c2ccc(NS(=O)(=O)c3ccc4c(c3)OCCO4)cc2)cc1 | inconclusive [inhibitor, partial curve]
10 | CC(C)(C)C1CCc2c(sc(NC(=O)c3ccncc3)c2C(=O)Nc2ccccc2Cl)C1 (stereo not drawn) | inactive
11 | COc1ccc(NC(=O)N2CCN(c3cc(-c4noc(C)n4)ccc3C)CC2)c(OC)c1 | inconclusive [inhibitor, single point]
12 | CC(=O)N/N=C/c1ccc([N+](=O)[O-])o1 | inconclusive [inhibitor, partial curve, poor fit]
13 | COc1ccc(-n2nnnc2/C=C/Nc2cc(C(F)(F)F)ccc2OC)cc1 | inconclusive [inhibitor, single point]
14 | COc1ccc(N2CCN(C(=O)CCn3cnc4onc(-c5ccc(F)cc5)c4c3=O)CC2)cc1 | active: 23.1 µM
15 | CC1CC(N(C(=O)c2ccccc2Cl)c2ccccc2)c2ccccc2N1 (stereo not drawn) | active: 7.31 µM
16 | Cc1ccc(S(=O)(=O)c2c(N)n(CCC(C)C)c3nc4ccccc4nc23)cc1 | inconclusive [inhibitor, single point]
17 | COc1cccc(CNS(=O)(=O)c2ccc3c(c2)N(C)CCO3)c1 | inconclusive [inhibitor, single point]
18 | Cc1cc2[nH]c3c4ccccc4nc(C)c3c2cc1C | active: 3.66 µM
19 | Cn1c(=O)[nH]c(=O)c2c1nc(N1CCN(C(c3ccccc3)c3ccccc3)CC1)n2CCO | inconclusive [inhibitor, single point]
20 | Cc1cc(C(=O)NN)c(C)o1 | inactive
21 | Cc1cc(C)cc(N2CCn3c2nc2c3c(=O)n(CCc3ccccc3)c(=O)n2C)c1 | inactive
22 | CN(CCC#N)c1ccc(C=C(C#N)c2ccc(Br)cc2)cc1 | inconclusive [inhibitor, single point]
23 | CCOC(=O)c1sc2c(c1C)c(=O)n(CCO)c(=O)n2Cc1ccccc1 | active: 14.6 µM

Row | Compound | Potency
24 | COc1ccc2cc(C(=O)C3CCCN(C(=O)Cc4c(C)noc4C)C3)ccc2c1 (stereo not drawn) | active: 23.1 µM
25 | CCCCSc1nc2ccc(Nc3nc(N4CCOCC4)nc(N4CCOCC4)n3)cc2s1 | inconclusive [inhibitor, single point]
26 | CN(C)C(=O)c1ccc(-c2cc(Nc3ccccc3)ncn2)cc1 | inconclusive [inhibitor, single point]
27 | CCC(C)Sc1ccc([C@H]2N[C@@](Cc3ccccc3)(C(=O)OC)[C@H]3C(=O)N(C)C(=O)[C@@H]23)cc1 (stereo partly drawn) | inconclusive [inhibitor, single point]
28 | Cc1ccc(/C=N/Nc2nc3ccccc3s2)o1 | inconclusive [inhibitor, single point]
29 | Cc1cccc(N2CCN(C(=O)c3ccoc3C)CC2)c1C | inconclusive [inhibitor, single point]
30 | COc1cc(C=O)ccc1Oc1nc(Nc2ccc(F)cc2F)nc(N2CCOCC2)n1 | inconclusive [inhibitor, single point]
31 | O=C(NCc1cccc(F)c1)Nc1nnc([C@H]2C[C@H](O)[C@@H](CO)O2)s1 | inactive
32 | Cc1nccn1-c1c([N+](=O)[O-])c(=O)n(C)c2ccccc12 | inactive
33 | C=C1CSc2nc(=O)c3c4c(sc3n21)CCCC4 | inactive
34 | Cc1ccc(-c2csc(Nc3ccccn3)n2)cc1 | inconclusive [inhibitor, partial curve, poor fit]
35 | O=C(/C=C/c1cccc([N+](=O)[O-])c1)Nc1ccc(Cl)cn1 | inconclusive [inhibitor, partial curve]
36 | Cc1ccc([C@@H]2[C@@H]3C(=O)N(C)C(=O)[C@@H]3[C@]3(C)C(=O)N(Cc4ccc(-c5ccccc5)cc4)CC(=O)N23)o1 | inconclusive [inhibitor, partial curve, poor fit]
37 | Cc1ccc(S(=O)(=O)N2CCOCC2)cc1NC(=O)COC(=O)C1=COCCO1 | inactive
38 | O=C(N[C@@H]1C/C=C\C[C@H](CC(=O)N(CCO)Cc2ccccc2)C(=O)NC[C@@H](c2ccccc2)OC1=O)OCC1c2ccccc2-c2ccccc21 | active: 6.51 µM
39 | O=C(CSC1=NNC(c2ccccn2)S1)Nc1ccc(C(F)(F)F)cc1 (stereo not drawn) | active: 4.11 µM
40 | Cc1ccc(-c2nc3c4ccccc4n(Cc4cccc(Cl)c4)c(=O)n3n2)cc1 | inactive
41 | CN(CCc1ccccc1)C(=O)c1cccc(NC(=O)Cc2cccc(NC(=O)C3CCCN(C(=O)C4CCCC4)C3)c2)c1 (stereo not drawn) | inconclusive [inhibitor, single point]
42 | COc1cccc(-c2nc(-c3ccc(NC(=O)Cc4ccccc4OC)cc3)no2)c1 | inconclusive [inhibitor, single point]
43 | N#Cc1cccc(C(c2nnnn2C2CCCC2)N2CCC(Cc3ccccc3)CC2)c1 (stereo not drawn) | inconclusive [inhibitor, single point]
44 | Cc1cccc(N2CCN(C(=O)c3ccc(Cl)c(S(=O)(=O)N4CCc5ccccc5C4)c3)CC2)c1C | inconclusive [inhibitor, single point]
45 | CN1CCN(c2ccc(Cl)cc2NC(=O)c2ccc([N+](=O)[O-])cc2)CC1 | inconclusive [inhibitor, single point]
46 | CC(C)CC(=O)Nc1ccc(-c2cn3ccsc3n2)cc1 | inconclusive [inhibitor, partial curve]

Row | Compound | Potency
47 | CCN(Cc1nc2ccccc2c(=O)[nH]1)C(=O)c1cc(C2CC2)nn1-c1ccccc1 | inconclusive [inhibitor, partial curve]
48 | COc1ccc(-c2c(-c3cc(OC)cc(OC)c3)n(C)c3ccc(-c4ccc(OC)cc4F)cc23)cc1 | inconclusive [inhibitor, partial curve, poor fit]
49 | Cc1c(C)n(Cc2ccccc2)c2ncnc(NCCO)c12 | inactive
50 | O=C(CSc1ncnc2c1oc1ccccc12)Nc1cccc(C(F)(F)F)c1 | inconclusive [inhibitor, single point]
51 | COc1ccc(S(=O)(=O)CCC(=O)N2CCN(c3cccc(Cl)c3)CC2)cc1 | active: 18.4 µM
52 | CC(=O)N1CCCc2cc(S(=O)(=O)Nc3cccc(C)c3C)ccc21 | inconclusive [inhibitor, single point]
53 | CC(CCN1CCC(CN2C(=O)C(=O)NC[C@@H]2Cc2ccccc2)CC1)c1ccccc1 (stereo partly drawn) | inactive
54 | CCOc1ccc(OCCC(=O)N(CC(=O)Nc2ccccc2C(F)(F)F)Cc2ccco2)cc1 | inactive
55 | O=C(CN(c1ccccc1Cl)S(=O)(=O)c1ccccc1)NCc1ccccc1 | inconclusive [inhibitor, single point]
56 | COc1ccc2oc(C(=O)N3CCN(S(=O)(=O)c4c(C)c(C)cc(C)c4C)CC3)c(C)c2c1 | inconclusive [inhibitor, single point]
57 | Cc1ccc(NS(=O)(=O)c2ccc(-n3cccn3)cc2)cc1F | inconclusive [inhibitor, single point]
58 | CS(=O)(=O)N(CC(=O)N1CCN(c2ccccc2)CC1)c1ccc(Cl)c(C(F)(F)F)c1 | inconclusive [inhibitor, single point]
59 | Cc1nc2c(nc1C)C(=O)c1ccccc1C2=O | active: 3.66 µM
60 | NC(=O)CC(NC(=O)c1ccccc1)c1ccc(NCCN2CCCCC2)c([N+](=O)[O-])c1 (stereo not drawn) | inactive
61 | CC(C)=CC(=O)O[C@@H]1Cc2c(ccc3ccc(=O)oc23)OC1(C)C | inconclusive [inhibitor, partial curve, poor fit]
62 | COc1cc(/C=N/NC(N)=S)cc(Br)c1OCc1ccccc1F | active: 6.51 µM
63 | N#Cc1c2c(c(NCc3cccnc3)n3c1nc1ccccc13)CCC2 | inactive
64 | Cn1ncc(Cl)c1C(=O)N1CCN(c2ncccn2)CC1 | inactive
65 | COc1ccc(S(=O)(=O)N(C)CC(=O)N2CCC(C(N)=O)CC2)cc1Cl | inactive
66 | CCOC(=O)Cc1ccc(NC(=O)N2CC(CC)Oc3ccccc32)cc1 (stereo not drawn) | active: 16.4 µM
67 | COc1ccc2sc(-c3ccc(SC)cc3)c(C#CCO)c2c1 | active: 18.4 µM
68 | COc1ccc2nc(N3CCN(C(=O)c4ccco4)CC3)sc2c1 | inconclusive [inhibitor, single point]
